Measured values taken from article PMC6919601, “Identification of Plasmodium dipeptidyl aminopeptidase allosteric inhibitors by high throughput screening” (PLoS ONE, 2019).
Among all 110,000 compounds or so, about 230 (0.21%) showed an effect of 50% or more. The list shows a part of the results.

What follows are compounds tested against DPAP1 (Plasmodium falciparum, UniProt Q8IIJ9) (assay: primary screen, percent inhibition; read by cleavage of a fluorogenic dipeptide substrate; higher = more effect of the substance).
Parameters: species or system P. falciparum D10 trophozoite lysates; single well
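Further: 30 min substrate incubation versus DMSO and 10 µM JCP410 controls.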

Chain of DPAP1 (Q8IIJ9 whole entry, looked up): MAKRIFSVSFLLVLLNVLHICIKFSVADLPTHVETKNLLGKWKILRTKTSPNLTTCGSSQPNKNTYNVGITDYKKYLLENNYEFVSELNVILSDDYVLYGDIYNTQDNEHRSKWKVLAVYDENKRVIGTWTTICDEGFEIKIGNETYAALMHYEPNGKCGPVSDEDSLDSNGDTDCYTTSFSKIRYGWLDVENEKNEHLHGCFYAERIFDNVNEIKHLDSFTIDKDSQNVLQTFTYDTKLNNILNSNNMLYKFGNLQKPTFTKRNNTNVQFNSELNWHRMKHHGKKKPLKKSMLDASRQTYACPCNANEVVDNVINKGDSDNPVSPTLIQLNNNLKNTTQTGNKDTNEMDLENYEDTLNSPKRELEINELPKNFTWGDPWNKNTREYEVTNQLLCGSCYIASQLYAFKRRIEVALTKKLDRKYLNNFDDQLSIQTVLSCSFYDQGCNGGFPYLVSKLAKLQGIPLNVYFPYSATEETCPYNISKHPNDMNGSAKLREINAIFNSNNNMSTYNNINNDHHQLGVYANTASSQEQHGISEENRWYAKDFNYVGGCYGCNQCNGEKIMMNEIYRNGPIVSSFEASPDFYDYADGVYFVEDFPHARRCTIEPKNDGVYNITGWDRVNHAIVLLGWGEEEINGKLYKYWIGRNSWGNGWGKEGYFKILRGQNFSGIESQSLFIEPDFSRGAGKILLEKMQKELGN

Compound | % Inhibition @ 10 uM [%]
COc1ccc(CCC(C)NC2CCCCC2C)cc1 (stereo not drawn) | 3.19
COc1ccc2occ(C(C)N)c2c1 (stereo not drawn) | 0.847
O=S(=O)(c1ccc(-c2cc(C(F)(F)F)no2)s1)N1CCc2ccccc2C1 | -0.518
Cc1ccc(-n2nc3c(c2NC(=O)c2cccc(Cl)c2)CS(=O)(=O)C3)cc1 | 5.9
COc1ccccc1Cn1c(CO)nc2ccccc21 | -0.425
COc1ccc(Cl)cc1NC(=O)CC(NCCN)C(=O)O (stereo not drawn) | 5.17
O=C(COc1ccc(Cl)cc1Cl)Nc1ccc(F)cc1 | -3.82
COCCCNC(=O)c1csc2c1CCC(C)C2 (stereo not drawn) | 1.93
CCC(C)n1c(=O)c2sccc2n2c(CCCC(=O)NCc3ccc4c(c3)OCO4)nnc12 (stereo not drawn) | -7.18
NC(=O)c1ccc(NC(=O)CCc2ccccc2)cc1 | -3.23
CS(=O)(=O)N(CC(=O)NCCc1ccccc1)c1cccc(F)c1 | -2.21
CCc1ccc(C2CC(=O)NC3=C2C(=O)CC(c2ccc(F)cc2)C3)cc1 (stereo not drawn) | -5.47
O=C1OC(c2ccc(Cl)cc2)=N/C1=C\c1cc(Br)ccc1F | 6.4
COc1ccc(C2C(C#N)=C(N)Oc3cc(C)n(Cc4cccnc4)c(=O)c32)cc1OC (stereo not drawn) | 2.68
COC(=O)c1ccc(-c2ccc(CNCCSc3nnnn3C)o2)cc1 | -3.49
CC(C)OCCCNC(=O)c1cc(-c2ccc(Cl)s2)nc2ccccc12 | -2.49
c1ccc(CSc2n[nH]c3nc4ccccc4n23)cc1 | 2.9
CC(=O)N1CCC(=O)N(C(C)C)c2ccccc21 | 6.29
Cc1n[nH]c(C)c1CCCCCOc1ccccc1Cl | -3.42
COc1ccc(N2CCN(Cc3cccnc3)CC2)cc1 | 1.48
CC(C)N(Cc1ccccc1)C(=O)c1ccccc1Cl | 1.38
COc1cccc2cc(-c3csc(NC(=O)CCC(=O)N4CCc5ccccc5C4)n3)c(=O)oc12 | -1.5
Cc1ccc2oc(-c3cccc(NC(=O)c4ccccc4F)c3C)nc2c1 | -4.01
O=C(CS(=O)(=O)c1cn(CC(=O)N2CCCCCC2)c2ccccc12)NCC1CCCO1 (stereo not drawn) | -3.43
Cc1ccc(C(=O)N2N=C3c4ccccc4S(=O)(=O)N3C2N2CCCCC2)cc1 (stereo not drawn) | -3.21
O=C(/C=C/c1ccccc1Cl)NCC1CCCO1 (stereo not drawn) | 5

Compound | % Inhibition @ 10 uM [%]
Nc1cc(=O)nc(SCC(=O)Nc2nncs2)n1CCc1ccccc1 | 6.73
Cn1c(=O)[nH]c(=O)c2c1nc1n2CC(O)CN1c1cccc2ccccc12 (stereo not drawn) | 1.15
CC(C)c1ccc(-c2c(NC3CCCCC3)c(=O)c2=O)cc1 | -1.98
O=C(NCCCN1CCOCC1)c1cc(-c2ccc3c(c2)OCO3)on1 | -5.77
Cc1ccc(CNCc2c(C(=O)O)n(Cc3ccc(F)cc3)c3ccccc23)cc1 | -6.89
CCOc1ccc(C2C(C#N)=C(N)Oc3cc(C)oc(=O)c32)cc1 (stereo not drawn) | -1.29
Cc1nc2nc(C)c(CCC(=O)NCCc3ccc(Cl)cc3)c(C)n2n1 | -2.25
CC(C)C[C@H](NC(=O)c1ccc(-c2csc(N=C(N)N)n2)cc1)C(=O)N[C@@H](CCCN=C(N)N)C(=O)O | -2.35
Cc1ccc(-c2n[nH]c3c2C(C)C(C#N)=C(N)O3)cc1 (stereo not drawn) | -6.92
COc1cc(C2CC(=O)Nc3c2c(C)nn3-c2nc3ccccc3s2)ccc1O (stereo not drawn) | 2.25
CCOC(=O)C1=C(C)N(Cc2ccccc2)C(=O)C1CC(=O)O (stereo not drawn) | -1.06
O=S(=O)(Nc1cccc(F)c1)c1ccc(-c2ccccc2)cc1 | 3
O=C1C2C3CCC(O3)C2C(=O)N1c1ccc(Cl)cn1 (stereo not drawn) | -0.999
CCc1ccc(CNC(=O)CN(C)c2nn3c(=O)cc(C)nc3s2)cc1 | 4.55
Cc1ccccc1OC1=NS(=O)(=O)c2ccccc21 | 0.343
Cc1ccc(CNC(=O)c2cnccn2)cc1 | 0.795
Cn1c(=O)c2sccc2n2c(CCCC(=O)N3CCN(C(=O)c4ccco4)CC3)nnc12 | -0.212
CC1(C)CC(=O)c2cnc(NCCc3ccccc3)nc2C1 | 3.87
O=S(=O)(NCCN(Cc1ccco1)C1CCCC1)c1ccc(-c2cc(C(F)(F)F)no2)s1 | -3.07
O=C(Nc1c2c(nn1-c1cccc(Cl)c1)CS(=O)(=O)C2)c1ccc(C(=O)c2ccccc2)cc1 | -0.967
Cn1c(=O)c2c(ncn2CC(=O)NCc2ccccc2)n(C)c1=O | -1.38
COc1ccccc1-c1nnc2sc(/C=C/c3ccccc3)nn12 | 6.01
COc1ccc(NC(=O)CSCc2cccc(Br)c2)cc1 | -0.0217
O=C1CCN(C(=O)c2cccs2)c2ccccc21 | 0.317
CCN(CC)S(=O)(=O)c1cc(C(=O)Nc2ccc(Cl)cn2)ccc1OC | -2.26
CSc1nnnn1-c1ccccc1 | -4.08

Compound | % Inhibition @ 10 uM [%]
COc1ccc(-n2c(S)nnc2CN2CCN(C)CC2)cc1 | -0.969
Cc1nc(O)nc(O)c1S(=O)(=O)N1CCN(C(=O)c2cc(-c3ccco3)[nH]n2)CC1 | -1.87
CC1CCC2(CC1)N=C(c1cccc(F)c1)C(=S)N2 (stereo not drawn) | 12.4
O=C(NCCCO)c1ccc2snnc2c1 | 1.43
Cc1cc(O)nc2c1cnn2Cc1ccccc1 | -0.45
N#C/C(=C\c1ccc([N+](=O)[O-])cc1)c1nc(-c2ccccc2)cs1 | -0.268
NC(=O)C1CCN(c2ccc(C(F)(F)F)cn2)CC1 | -4.73
CCN1CN=C2SC(CO)(CO)C(=O)N2C1 | 1.37
Cc1oc2c(c(C)cc3oc(=O)c(C)c(C)c32)c1C | -1.15
CCOc1ccc(N2C(=O)CC(N3CCN(Cc4ccccc4)CC3)C2=O)cc1 (stereo not drawn) | 4.06
O=S(=O)(Nc1nc2c(s1)CCCC2)c1ccc(Br)cc1 | 2.37
Cc1nnc(SC2CCNCC2)s1 | 2.29
CCO/C(O)=C/C1=Nc2cc(C)c(C)cc2NC(=O)C1 | 2.41
CCC[C@H](NC(=O)C(Cc1c(F)cccc1F)NC(=O)c1ccc(-c2ccccc2Cl)cc1)C(=O)c1nnc(CC)o1 (stereo partly drawn) | -5.2
COc1ccc(OC)c(NC(=O)c2ccncc2)c1 | -3.45
COc1ccccc1N1C(=O)c2ccccc2NC1c1cc(Cl)cc2c1OCOC2 (stereo not drawn) | -12
CC(Oc1ccccc1F)C(=O)Nc1ccc(S(=O)(=O)N2CCCCC2)cc1 (stereo not drawn) | -0.132
C=CCNC(=O)CC(NS(=O)(=O)c1ccc(OC)cc1)c1ccco1 (stereo not drawn) | 4.47
CN(C)/C=N/c1c(C#N)cnn1-c1ncnc2sc3c(c12)CCC3 | -1.6
CCN(CC)S(=O)(=O)c1ccc(NS(=O)(=O)c2ccc(NC(C)=O)cc2)cc1 | 2.27
Cc1nc2nc(NC(=O)CC(C)C)nn2c(O)c1Cl | 0.401
COc1ccccc1CC(C)N[C@H]1CCCCNC1=O (stereo partly drawn) | 1.57
Cc1ccc(-c2noc(CN3CCC(C)CC3)n2)cc1 | -5.23
O=C(Nc1ccc(S(=O)(=O)c2ccc(NC(=O)c3ccccc3)cc2)cc1)c1ccccc1 | 2.94
Cc1nc(Oc2ccc3c(C)cc(=O)oc3c2)c2c3c(sc2n1)CCC3 | 0.685
COc1cccc(C2=NOC(C(=O)N3CCN(Cc4ccccc4)CC3)C2)c1OC (stereo not drawn) | -0.431

Compound | % Inhibition @ 10 uM [%]
CCOc1ccc(C2NC(=O)N(C)C(C)=C2C(=O)Nc2ccccc2)cc1 (stereo not drawn) | -3.69
COc1ccc(-c2noc(CN(C(=O)C34CC5CC(CC(C5)C3)C4)C(C)C)n2)cc1 | -0.352
COc1cc(CNCc2cccnc2)ccc1OCc1ccccc1F | 2.84
CCCOc1ccc2cc(C(=O)O)ccc2c1Cl | -2.6
Cc1ccc(NC(=O)c2sc3nc(N)c(C#N)cc3c2N)c(Br)c1 | 6.65
CCOc1ccc2ccccc2c1/C=C1/NC(=O)N(CC)C1=O | -4.03
CC(=O)c1cc(-c2ccc(F)cc2)n(CC(=O)NC(C)(C)C)c1C | -5.47
Cc1noc2ncnc(N3CCCC(C(=O)NCCN(C)C)C3)c12 (stereo not drawn) | 6.45
O=C(COCc1cc(-c2ccc3c(c2)OCO3)on1)NCC1CCCO1 (stereo not drawn) | 5.32
CCCNc1nc(SCc2ccc(Cl)cc2)nnc1C | -2.99
Cc1cc(C(F)(F)F)c(C#N)c(SCc2ccccc2)n1 | 2.23
Cc1nn(CC(=O)NC2CCN(Cc3ccccc3)CC2)c(=O)c2cccn12 | -3.1
CC(=O)c1ccc(C(=O)NCCOc2ccccc2)cc1 | -2.85
Cc1ccc(C)c(S(=O)(=O)Nc2ccc(C(=O)NCc3ccco3)cc2)c1 | -1.61
Cc1ccc2oc(=O)c3cnn(CC(=O)NCCN4CCc5ccccc5C4)c3c2c1 | 3.2
Cc1ccc(S(=O)(=O)N2CCCC(C(=O)NCCCN3CCCCC3C)C2)cc1 (stereo not drawn) | 5.23
N#Cc1c(N)nc(S)c(C#N)c1-c1cccc([N+](=O)[O-])c1 | 48.8
CC1CCCN(S(=O)(=O)c2cc(C(=O)O)ccc2F)C1 (stereo not drawn) | -5.64
O=C(c1ccc(-c2ccccc2)s1)N1CCc2ccccc2C1 | 5.91
Cc1ccc(C(=O)N/C(=C\c2cccc(Br)c2)C(=O)N2CCOCC2)cc1 | 2.69
CCOc1ccccc1NC(=O)CN(c1cc(C)ccc1C)S(C)(=O)=O | -6.77
CC(=O)c1ccc(-n2c(C)ccc2-c2ccccc2)cc1 | -3.14
CCCc1ccc(OCC(=O)Nc2cc([N+](=O)[O-])ccc2C)cc1 | 1.33
COc1cc(C)c(S(=O)(=O)N2CCN(Cc3ccccc3)CC2)cc1C(C)C | 3.68
